# In publication PMC7819943, “Rice protein-binding microarrays: a tool to detect cis-acting elements near promoter regions in rice”:
# The other results are listed elsewhere or left out.
# Biological target: T1, OsWOX13 (Oryza sativa, UniProt Q5QMM3 1-267)
# T1 sequence: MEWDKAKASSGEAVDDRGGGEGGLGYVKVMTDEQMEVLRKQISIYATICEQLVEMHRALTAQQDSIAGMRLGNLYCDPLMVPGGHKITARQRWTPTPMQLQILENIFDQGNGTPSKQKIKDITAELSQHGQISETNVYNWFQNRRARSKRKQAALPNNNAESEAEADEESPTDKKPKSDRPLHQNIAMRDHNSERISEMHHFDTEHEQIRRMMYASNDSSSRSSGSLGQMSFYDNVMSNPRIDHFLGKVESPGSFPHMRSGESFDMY
# Assay: protein-binding microarray (RPBM); PBS, 2% BSA, 51.3 ng/ul salmon testes DNA, 50 uM zinc acetate, 200 nM TF, 25 C, 1 h; high values mean tight binding
# Details: protein: recombinant; tags: N-terminal polyhistidine and DsRed monomer fusion (pET32a); label: CyDye5-dUTP incorporated in the synthesized complementary strand; 3' TTTTT single-stranded linker to array surface; dsDNA, one strand shown
# In short: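 Binding signal is defined as the fluorescence intensity of each feature in arbitrary units, read on an Axon 4000B scanner. Transcription factors with N-terminal polyhistidine and DsRed fusions came from E. coli BL21-CodonPlus and were purified on Ni–NTA. They were incubated at 200 nM for 1 h at 25 °C on a custom Agilent array that had been made double-stranded with Cy5-dUTP, with 50 µM zinc acetate present, and the array was washed.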
row,Sequence,binding signal
1,GTCGTTAATTTTGACGGTTTACCTGCTGCATTCCTTCTGTCGGAGTCACCTAGTGCAG,15600 fluorescence intensity (a.u.)
2,GAAATAATGAACATAGATTTACTGTATTGGCGCCATTAGACGGAGTCACCTAGTGCAG,5720 fluorescence intensity (a.u.)
3,CCATCACTAAATTTGTTGTCGTCGAAATTGCAGGCCATATCGGAGTCACCTAGTGCAG,7090 fluorescence intensity (a.u.)
4,ATTCATGAATATATGAAACCTGATTGCAAATGTGCAAATCCGGAGTCACCTAGTGCAG,4970 fluorescence intensity (a.u.)
5,TAGAATTAGCAAAATTTAACAGAATAGCATTGGTAAGAACCGGAGTCACCTAGTGCAG,5640 fluorescence intensity (a.u.)
6,TTTCAATATGATCAAAGATTGGAACTGTGGCTTGCCTTGTCGGAGTCACCTAGTGCAG,5900 fluorescence intensity (a.u.)
7,AAGAAAATAAGGGGATTGGGGATGACATGTGGGGCCCACGCGGAGTCACCTAGTGCAG,3930 fluorescence intensity (a.u.)
8,TATGATTGGCATGGCCTGAATGGATGGATGAATTTTGGATCGGAGTCACCTAGTGCAG,58500 fluorescence intensity (a.u.)
9,AACATATCACTGAGTGAATTAGTAGAGCATAATCAGATAGCGGAGTCACCTAGTGCAG,3570 fluorescence intensity (a.u.)
10,GGTAACTAAATAAATGGTCTATGATATACTGTGGGAAACACGGAGTCACCTAGTGCAG,7060 fluorescence intensity (a.u.)
11,ACTATCAATTCCATCATCTAAACTCTTGAACAAGCCGTCACGGAGTCACCTAGTGCAG,7450 fluorescence intensity (a.u.)
12,AGTAACTAAATTATTACAAAACTATAAGTTTTAGAACCAACGGAGTCACCTAGTGCAG,12200 fluorescence intensity (a.u.)
13,ATAATTGAAAACAATGCCACTATGTGTGTCTCGCTGGCTTCGGAGTCACCTAGTGCAG,27500 fluorescence intensity (a.u.)
14,GCTTGATTCATTAATTCATATGTGTCGTGTACTACTAATCCGGAGTCACCTAGTGCAG,7110 fluorescence intensity (a.u.)
15,AATAATTACCAGTACTAGCCCTACACTTCCACTGGCGATCCGGAGTCACCTAGTGCAG,15200 fluorescence intensity (a.u.)
16,TGAATAGACTATTAGATTAGCTATAGATGATTTAGAGCCACGGAGTCACCTAGTGCAG,16400 fluorescence intensity (a.u.)
17,GTCTTAATTATAGGGTTAGTTGAGGCCTCAATTGCAAGCTCGGAGTCACCTAGTGCAG,19600 fluorescence intensity (a.u.)
18,AAGTTAGAAACTGTAATTAATTTCGTCGTTGCAACGGTCGCGGAGTCACCTAGTGCAG,8290 fluorescence intensity (a.u.)
19,TTTTGATAATTGATATGTGCAAACTTAGGGCTGGTCGCGTCGGAGTCACCTAGTGCAG,31800 fluorescence intensity (a.u.)
20,GTGAGATTATTGATGCCGAGTTATCTGCGAATTTTCATGGCGGAGTCACCTAGTGCAG,10500 fluorescence intensity (a.u.)
21,GCAATCAATCAATCAATCATATATCCATATCAAATTAAGCCGGAGTCACCTAGTGCAG,61800 fluorescence intensity (a.u.)
22,GTTGTTGATGATGATTCTAGCGTTTCAATCTGTTGTGGTGCGGAGTCACCTAGTGCAG,5260 fluorescence intensity (a.u.)
23,CATAAATTGGACTATTTTCGAATTTAATGTACGACCTCCCCGGAGTCACCTAGTGCAG,22900 fluorescence intensity (a.u.)
24,TAGCCTAATTGCGCAATTAGCCACCACTAATCACGCAGCGCGGAGTCACCTAGTGCAG,32300 fluorescence intensity (a.u.)
25,ATTTTATTTATTATAATTAAATCTTTATAAGAAGATCTTACGGAGTCACCTAGTGCAG,4750 fluorescence intensity (a.u.)
26,GGAATTGATCATCAATTGAGGGGTTCTGACGGCTAGAATCCGGAGTCACCTAGTGCAG,20700 fluorescence intensity (a.u.)
27,TCCTCATCCATCCATCATCCATCTCATCATCAGCAACCAACGGAGTCACCTAGTGCAG,3450 fluorescence intensity (a.u.)

row,Sequence,binding signal
1,CCACCTCCTACCCAATCATGTACACAAAACTTAACTAGGACGGAGTCACCTAGTGCAG,4860 fluorescence intensity (a.u.)
2,CTTACAATTAACACTACTGTCTATGTCTCAATTCATACTACGGAGTCACCTAGTGCAG,3260 fluorescence intensity (a.u.)
3,AATGATCAATGCATGATTAATAACTTCTATTGTGTAAACGCGGAGTCACCTAGTGCAG,14500 fluorescence intensity (a.u.)
4,CTATAATTACTATTATTAGTAATCATTGCATGTACAAAGCCGGAGTCACCTAGTGCAG,28200 fluorescence intensity (a.u.)
5,TTTAATGAAAATAATTTTCTCATAAATATCCAATCCAAGACGGAGTCACCTAGTGCAG,14700 fluorescence intensity (a.u.)
6,AATCACAGATTGCCGAAATTGGATTTTCCCCAATTTGATGCGGAGTCACCTAGTGCAG,21300 fluorescence intensity (a.u.)
7,TCCATATTAATTGACGTTTTAGATAAGGTTGAGGTCAATTCGGAGTCACCTAGTGCAG,37900 fluorescence intensity (a.u.)
8,CAGAATCAATCAGCCACAAGTCAAGTCGTTTCCAAATGGCCGGAGTCACCTAGTGCAG,21800 fluorescence intensity (a.u.)
9,ATTGGTGATGACTACAATGATGATATGATGGATGAAGAAGCGGAGTCACCTAGTGCAG,4600 fluorescence intensity (a.u.)
10,GCTCGGATTGGACATTTTCTAATACCACGAATCTAAACAGCGGAGTCACCTAGTGCAG,5660 fluorescence intensity (a.u.)
11,TGGATTAATTAGGCTCAATAGATTCATCTCGCGAATTAGTCGGAGTCACCTAGTGCAG,14300 fluorescence intensity (a.u.)
12,GCACAATTAATAGATTTGGAGGATATGTCAAACCTTGGGGCGGAGTCACCTAGTGCAG,25700 fluorescence intensity (a.u.)
13,TAAAACACCAGCTAATTAATCAATGTACTGTAAGTTTGTACGGAGTCACCTAGTGCAG,6090 fluorescence intensity (a.u.)
14,TGTAATAACGTATATAATTAATCGATCGCGTATAGAAGACCGGAGTCACCTAGTGCAG,9120 fluorescence intensity (a.u.)
15,CGGTAATAATAATAAACAGAGGCTAGCTTGCCTCTTGTCTCGGAGTCACCTAGTGCAG,3980 fluorescence intensity (a.u.)
16,GTATCAATCAGAATTTAGGAGACATGTTTAGGGTGAAACACGGAGTCACCTAGTGCAG,19200 fluorescence intensity (a.u.)
17,GTATGATTGGTTATGTAAAGTTTGTTTCTTGTTCTAGAGGCGGAGTCACCTAGTGCAG,58400 fluorescence intensity (a.u.)
18,CTTGATATAACTGAGGTAGGCGGTCTCCAGAAACCCCAGCCGGAGTCACCTAGTGCAG,11700 fluorescence intensity (a.u.)
19,CTAATTAAACAAACACGCGAAATACACGTATATCAAGAAACGGAGTCACCTAGTGCAG,5100 fluorescence intensity (a.u.)
20,CAAAATTTGTTAAGCAATTAGTAGGGCTAAATGTTAGGTTCGGAGTCACCTAGTGCAG,28500 fluorescence intensity (a.u.)
21,CGCACCAATCTCACCACATCAATCCACATGGCGTCGCGTCCGGAGTCACCTAGTGCAG,5000 fluorescence intensity (a.u.)
22,AAATCCTGATATCTAATCAAAATTTGTTCACAAGCAGCGGCGGAGTCACCTAGTGCAG,7900 fluorescence intensity (a.u.)
23,AGTTGATTTATCATGGAAAGATAAATTTCAGCATCTCACACGGAGTCACCTAGTGCAG,20000 fluorescence intensity (a.u.)
24,TCTCATCCGTCCGTCCATCATCTCATCTAATCTATCCGTCCGGAGTCACCTAGTGCAG,3200 fluorescence intensity (a.u.)
25,GTAAAATTTGTGAATAATATTACTATCAGTTTGCTGGATTCGGAGTCACCTAGTGCAG,4250 fluorescence intensity (a.u.)
26,GCTGTGTGATCGTCATCAATTGATCAGCAGAGTACCGTGGCGGAGTCACCTAGTGCAG,6260 fluorescence intensity (a.u.)
27,GTAATTGTTCTTTGATCTAATAAATTACCTGAGTTTTAAACGGAGTCACCTAGTGCAG,8650 fluorescence intensity (a.u.)
